# Hit rate of the full screen: of about 210,000 compounds, about 5,900 (2.8%) were called active. Inconclusive results, whose numbers are uncertain, are shown with a selection of clear calls. Calls follow the shape of the dose curve; as a rule, active = well fitted activation curve with a large enough effect; inconclusive = small, poorly fitted or top-dose-only effect; inactive = no such curve, though single readings can be large or run the other way. Potencies of inconclusive entries are doubtful fits and often do not repeat.
# Experiment: qHTS Assay for Enhancers of SMN2 Splice Variant Expression; also: nearly all actives have a fitted effect of over 55% in size; as to activity change, positive = activation: % of control where 0% means no effect
# Conditions: HEK293 SMN2-luciferase splicing reporter, luminescence, 30-36 h; activity change, positive = activation: at 46.1 µM (top of the series)
# In short: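 HEK293 cells carry an SMN2 […]–luciferase reporter in which exon 7 inclusion puts luciferase in frame. Cells were plated 10-12 h before compound addition, then incubated 30-36 h at 37C. ONE-Glo luminescence was read; sodium butyrate at 4.5 mM final served as control.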
# Potency is read from the fitted curve at half-maximal effect; tags tell the direction and shape of the fitted curve.
SMILES,Potency,"activity change, positive = activation"
CCOc1ccc(-c2ccc(SCC)nn2)cc1,active: 4.47 µM,–
CC1CCCN(Cc2nc3c(c(=O)n(C)c(=O)n3C)n2Cc2ccc(Cl)cc2Cl)C1 (centres undefined),–,inactive: -0.401%
Cc1sc(NC(=S)NC(=O)c2cccs2)nc1-c1ccc(C(C)C)cc1,–,inactive: -1.02%
C=CCNC(=O)/C=C/c1ccc(C(C)C)cc1,"inconclusive: 25.1 µM [activator, single point]",–
CSc1cccc(NC(=O)Nc2ccccc2)c1,"inconclusive: 35.5 µM [activator, partial curve, poor fit]",–
CCc1ccc(NC(=O)c2cnc3scc(C)n3c2=O)cc1,active: 8.91 µM,–
Cc1cc(C(=O)Nc2cnc3ccccc3c2)ccc1[N+](=O)[O-],active: 12.6 µM,–
Cc1cc(-c2nc3ccccc3[nH]2)ccc1N,active: 6.31 µM,–
NC(N)=NCCN1CCCCCCC1,inactive,–
Fc1ccc(/C=N/NC(=S)Nc2ccc(Cl)cc2)cc1F,"inconclusive: 3.55 µM [activator, full curve, poor fit]",–
c1ccc(Oc2cccc(OCCCCSc3ncccn3)c2)cc1,–,inactive: 4.13%
O=C(Nc1ccc2nc(-c3ccco3)c(-c3ccco3)nc2c1)N1CCCCCC1,–,inactive: -2.2%
Cn1c(C23CC4CC(CC(C4)C2)C3)n[nH]c1=S,–,inactive: -12.6%
O=C(Nc1c(C(=O)Nc2cccc(C(F)(F)F)c2)oc2ccccc12)c1cc(=O)c2ccccc2o1,–,inactive: 5.28%
CCn1c(SCC(=O)N2CCN(c3ccccc3)CC2)nnc1-c1ccoc1C,–,inactive: -45%
O=C(NCc1ccc(Cl)cc1)c1n[nH]c([N+](=O)[O-])c1Cl,–,inactive: 20.3%
CCn1c(=O)c2cc(C(=O)NCCCN(C)Cc3ccccc3)sc2c2ccccc21,"inconclusive: 3.16 µM [activator, partial curve]",–
FC(F)(F)c1cc(-c2cccs2)n[nH]1,"inconclusive: 10 µM [activator, partial curve, poor fit]",–
CCOC(=O)CN1N=C(c2ccc(Cl)s2)CSC1=O,"inconclusive: 5.62 µM [activator, single point]",–
COc1ccc(C(=O)NCCSc2ccccc2)cc1,active: 2.82 µM,–
CN(C)c1ccc(/C=N/Nc2ccc(-n3ccnc3)nn2)cc1,"inconclusive: 3.16 µM [activator, full curve, poor fit]",–
N#C/C(=N\Nc1ccccc1)C(=N)N1CCCCC1,active: 11.2 µM,–
O=C(O)c1ccccc1Nc1ccc([N+](=O)[O-])cc1,active: 7.08 µM,–
Cc1onc(-c2ccccc2Cl)c1C(=O)Nc1ccc(S(=O)(=O)N2CCCC2)cc1,"inconclusive: 0.0447 µM [activator, full curve]",–
CCOc1ccccc1OCC(=O)NCc1ccco1,"inconclusive: 0.01 µM [activator, full curve, poor fit]",–

SMILES,Potency,"activity change, positive = activation"
Cc1noc(C)c1COC(=O)CCCOc1ccc(Cl)cc1Cl,–,inactive: 2.42%
Cc1ccc(C(=O)N/N=C2\CCCc3ccccc32)c(C)c1,active: 12.6 µM,–
Cc1csc(NC(=O)CSc2nnc(-c3ccoc3C)o2)n1,active: 11.2 µM,–
COc1ccc(/C=C(\NC(=O)c2cccs2)C(=O)Nc2ccc(C)cc2)cc1OC,"inconclusive: 0.891 µM [activator, full curve, poor fit]",–
N/C(=N\OC(=O)CCC1CCCC1)c1cccnc1,–,inactive: 14.9%
NS(=O)(=O)c1cccc(NC(=O)CCSc2ccccc2Cl)c1,"inconclusive: 35.5 µM [activator, single point]",–
CCn1c2ccccc2c2nnc(SCC(=O)Nc3ncccn3)nc21,"inconclusive: 4.47 µM [activator, full curve, poor fit]",–
C(=N\n1cnnc1)/c1ccc(OCc2cccc3ccccc23)cc1,active: 14.1 µM,–
COc1cc(/C=N/n2cnnc2)ccc1OCCSc1ccc(C)cc1,"inconclusive: 12.6 µM [activator, partial curve]",–
Cc1c(-c2nc(N)nc(C3CC3)c2C)nc(N)nc1C1CC1,–,inactive: 1.15% [at 9.22 µM]
CCOC(=O)Nc1c(O)ccc2oc(C)c(-c3ccccc3)c12,"inconclusive: 35.5 µM [activator, partial curve, poor fit]",–
Cc1cc(=O)[nH]c(N/N=C/c2ccccc2C(F)(F)F)n1,–,inactive: -3.28%
CNC(=O)N(O)C1N(NC(=O)Nc2cccc3ccccc23)C(=S)SC1(C)C (centres undefined),active: 7.08 µM,–
Fc1ccc(-c2nnc(-c3ccc(Cl)cc3)o2)cc1,"inconclusive: 22.4 µM [activator, single point]",–
CC1Cn2c(CCc3ccccc3)nnc2S1 (centres undefined),"inconclusive: 3.16 µM [activator, partial curve]",–
O=C(NNC(=S)NC1CCCCC1)c1cccc(S(=O)(=O)Nc2ccccc2Cl)c1,"inconclusive: 0.562 µM [activator, full curve, poor fit]",–
CCCc1cc(C(=O)Nc2cc(Br)ccc2O)no1,"inconclusive: 35.5 µM [activator, single point]",–
O=C(Nc1cccc(F)c1)c1ccc(-c2ccccc2C(F)(F)F)o1,–,inactive: 0.0796%
Cc1nc(-c2ccc3c(c2)OCCO3)cs1,"inconclusive: 20 µM [activator, partial curve, poor fit]",–
COc1ccc2c(C)cc(SCC(=O)Nc3nsc(-c4ccc(C)cc4)n3)nc2c1,"inconclusive: 8.91 µM [activator, partial curve]",–
CCN(C(=O)COc1ccccc1[N+](=O)[O-])C1CCS(=O)(=O)C1 (centres undefined),"inconclusive: 0.355 µM [activator, single point]",–
OCCSCc1ccccc1,–,inactive: -9.19% [at 9.22 µM]
CCc1nnc(NC(=O)C2Cc3ccccc3CN2S(=O)(=O)c2cccs2)s1 (centres undefined),"inconclusive: 25.1 µM [activator, single point]",–
COc1ccc(C(=O)N2c3ccccc3C(=O)OC2c2ccc3c(c2)OCO3)cc1 (centres undefined),active: 12.6 µM,–
CC(C)(C)N1C(=O)c2ccc(C(=O)NCc3ccco3)cc2C1=O,–,inconclusive: 36.8% [activator]

SMILES,Potency,"activity change, positive = activation"
O=C(O)c1[nH]c2ccc(Cl)cc2c1CC(=O)N1CCN(C(=O)c2ccco2)CC1,"inconclusive: 22.4 µM [activator, single point]",–
CCOC(=O)c1c2c3c(c(Cl)ccc3[nH]c1=O)C(=O)c1ccccc1-2,"inconclusive: 35.5 µM [activator, single point]",–
CCN(CC)c1ccc(C(=O)c2ccccc2C(=O)O)c(O)c1,"inconclusive: 35.5 µM [activator, single point]",–
Cc1ccc(C=Nc2ccccc2C(=O)Nc2ccccc2)cc1,"inconclusive: 1.41 µM [activator, full curve, poor fit]",–
CS(=O)(=O)N(CC(=O)Nc1ccccc1C(=O)NCCc1ccccc1)c1ccc2c(c1)OCCO2,"inconclusive: 28.2 µM [activator, partial curve, poor fit]",–
Cc1ccc(S(=O)(=O)Nc2ccnc3ccccc23)cc1,–,inactive: -34.7%
O=C(Nc1ccc(-c2nc3cccnc3s2)cc1)c1ccco1,active: 1.41 µM,–
CCc1ccc2oc(-c3cc(N)cc(C)c3O)nc2c1,"inconclusive: 35.5 µM [activator, single point]",–
COc1cc(C(=O)Nc2nnc(SC)s2)c([N+](=O)[O-])cc1OC,–,inactive: -4.77%
O=C(/C=C/c1ccc(Cl)cc1Cl)N1CCN(c2ccc([N+](=O)[O-])c(N3CCOCC3)c2)CC1,–,inactive: -36.1%
COc1cc(-c2nnn(CC(=O)NC3CCS(=O)(=O)C3)n2)ccc1OCc1ccccc1 (centres undefined),–,inconclusive: 36.8% [activator]
CCCCC(=O)Nc1ccc(NC(=O)c2ccc([N+](=O)[O-])cc2Cl)cc1OC,"inconclusive: 35.5 µM [activator, single point]",–
COc1ccc(Cn2nnnc2C(c2ccccc2Cl)N2CCN(C)CC2)cc1 (centres undefined),"inconclusive: 0.0251 µM [activator, full curve, poor fit]",–
Cc1c(C2(O)C(=O)Nc3ccc(F)cc32)c(=O)n(-c2ccccc2)n1C (centres undefined),"inconclusive: 0.0224 µM [activator, full curve, poor fit]",–
c1ccc2c(c1)oc1c(Nc3ccc4c(c3)OCO4)ncnc12,"inconclusive: 17.8 µM [activator, single point]",–
CCCCOC(=O)CSc1nc(N)c(C#N)c(-c2ccc(OCC)cc2)c1C#N,"inconclusive: 25.1 µM [activator, partial curve]",–
CC(/C=N/N1CCN(c2ccccn2)CC1)=C\c1ccccc1,"inconclusive: 11.2 µM [activator, partial curve, poor fit]",–
O=C(Nc1nnc(SCC(=O)N2CCOCC2)s1)c1ccccc1,active: 14.1 µM,–
COC(=O)C(O)(CC(=O)Nc1cccc(SC)c1)C(F)(F)F (centres undefined),"inconclusive: 10 µM [activator, partial curve, poor fit]",–
O/C(=C\c1nc2ccccc2nc1/C=C(\O)c1ccccc1)c1ccccc1,"inconclusive: 5.62 µM [activator, single point]",–
O=C(NCCCN1CCCC1=O)c1cc(=O)c2ccccc2o1,"inconclusive: 0.02 µM [activator, full curve, poor fit]",–
CCOc1cccc(C2c3c(oc4ccc(F)cc4c3=O)C(=O)N2c2cc(C)ccn2)c1 (centres undefined),"inconclusive: 6.31 µM [activator, single point]",–
COc1ccc(CC(=O)Nc2ccc(-c3ccc4nnc(C)n4n3)cc2)cc1OC,active: 17.8 µM,–
O=C(Nc1cccc(F)c1)c1ccc(CSc2ccccc2)o1,"inconclusive: 10 µM [activator, partial curve]",–

# Reference: PubChem BioAssay AID1458 (National Center for Advancing Translational Sciences (NCATS), 2008)
